The source of these data is the supplement of paper PMC4723716.

Molecules are shown by their SMILES. ± gives the uncertainty stated by the source. Whole data set: some 9,900 compounds, median “viability index relative to DMSO control” near 1, cut for the lowest 2% near 0.85. This is one part of the list.

The subject of this experiment is Plasmodium falciparum NF54 stage V gametocytes. In words: viability index relative to DMSO control (fraction); higher = less gametocyte killing. The note with it: 2.5 µM, library set: Broad Institute DOS, incubation time: 72 h. In a few lines:
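Gametocytes (P. falciparum NF54, stage V) were treated with compound at 2.5 µM for 72 hr at 37°C in low oxygen, in serum-free medium at 0.75% gametocytemia and 1.25% hematocrit. Counts of 20–70 µm2 red particles, taken from one field per well after MitoTracker Red CMXRos with saponin, were divided by the plate mean of solvent-only wells. This ratio is the viability index.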
Turning to `CCCC(=O)Nc1ccc2c(c1)C(=O)N(C)C[C@H](OC)[C@@H](C)CN(Cc1ccc(F)cc1)[C@@H](C)CO2`, the viability index is 1.05 ± 0.066. The figure for `C[C@@H]1CN([C@@H](C)CO)C(=O)c2cc(NS(=O)(=O)c3cccs3)ccc2O[C@@H]1CN(C)S(=O)(=O)c1ccc(Cl)cc1` is 1.04 ± 0.015. The figure for `CCC(=O)N1[C@H](CO)[C@H](c2ccc(C#CC(C)(C)O)cc2)[C@@H]1CN(C)C(C)=O` is 1.07 ± 0.064. The figure for `Cc1ccc(S(=O)(=O)N2C[C@@H]3[C@H](c4ccccc42)[C@H](CO)N3Cc2cccnc2)cc1` is 1.04 ± 0.024; for `Cc1ccccc1-c1ccc([C@H]2[C@H](CO)N3C(=O)CN(C(=O)c4ccncc4)C[C@@H]23)cc1` it is 0.978 ± 0.036; for `CCCNC(=O)Nc1ccc2c(c1)C(=O)N(C)[C@H]1CC[C@H](CC(=O)Nc3cc(F)ccc3F)O[C@@H]1CO2` it is 0.972 ± 0.018. As for `C[C@@H](NC(=O)C[C@H]1CC[C@@H]2[C@H](COc3ccc(NS(=O)(=O)c4ccc(Cl)cc4)cc3C(=O)N2C)O1)c1ccccc1`, the viability index was 1 ± 0.13. The figure for `Cc1cccc(S(=O)(=O)N[C@H]2CC[C@@H](CCNC(=O)Nc3cc(F)ccc3F)O[C@@H]2CO)c1` is 1.08 ± 0.038; for `C[C@@H]1CN([C@H](C)CO)C(=O)c2cc(C3=CCCCC3)cnc2O[C@@H]1CN(C)S(=O)(=O)c1cn(C)cn1` it is 1.01 ± 0.019; for `Cc1noc(C)c1NC(=O)Nc1ccc2c(c1)C(=O)N([C@@H](C)CO)C[C@@H](C)[C@@H](CN(C)Cc1ccc3c(c1)OCO3)OCCCC[C@@H](C)O2` it is 1.15 ± 0.058.

Molecule `C[C@H](CO)N1C[C@H](C)[C@@H](CN(C)CC2CCCCC2)Oc2ccc(NS(=O)(=O)c3cccs3)cc2CC1=O` came in with a viability index of 0.989 ± 0.099. With `C[C@@H]1CN([C@@H](C)CO)C(=O)CCCn2nncc2CO[C@@H]1CN(C)C(=O)Nc1ccnc(N2CCOCC2)c1` the figure was 1.055 ± 0.01.

For `O=C(CN1CCOCC1)N1[C@H](CO)[C@H]2c3ccccc3NC[C@H]21`, the viability index was 1 ± 0.088. The figure for `CO[C@H]1CN(C)C(=O)c2ccc(NC(=O)Nc3cc(F)ccc3F)cc2OC[C@@H](C)N(C(=O)c2ccccn2)C[C@H]1C` is 1.087 ± 0.0073; for `O=C(C[C@@H]1C[C@H]2c3cc(NC(=O)c4cccnc4)ccc3O[C@H]2[C@H](CO)O1)NCc1cc(F)ccc1F` it is 0.9992 ± 0.0069.

Consider `O=C(C[C@@H]1CC[C@H]2[C@@H](COC[C@@H](O)CN2Cc2nccs2)O1)NCc1ccccc1Cl`, for which the viability index came to 1.01 ± 0.061. As for `COc1ccc(NC(=O)N2C[C@@H]3[C@H](c4ccccc42)[C@H](CO)N3Cc2ccccn2)cc1`, the viability index was determined as 0.993 ± 0.11.

As for `N#C[C@@H]1[C@H](c2ccc(-c3cccc(F)c3)cc2)[C@H](CO)N1C(=O)NC1CCCC1`, the viability index was 0.743 ± 0.059. With `O=C(C[C@@H]1CC[C@@H]2[C@H](COC[C@@H](O)CN2S(=O)(=O)c2ccccc2)O1)NCC1CCCCC1` the figure was 0.979 ± 0.0099; with `C[C@H]1CN([C@@H](C)CO)C(=O)c2c(c3ccccc3n2C)-c2ccccc2CO[C@H]1CN(C)Cc1cccc(C(F)(F)F)c1`, 0.952 ± 0.02; with `C[C@@H]1CN([C@@H](C)CO)C(=O)c2ccccc2-c2ccccc2CO[C@H]1CN(C)C(=O)CCC(F)(F)F`, 0.961 ± 0.12. The figure for `O=C1CCCn2cc(nn2)COC[C@H](c2ccccc2)N1` is 1.06 ± 0.024; for `Cc1noc(C)c1NC(=O)N(C)C[C@H]1OCCCC[C@@H](C)Oc2ccc(NC(=O)Nc3ccc(C(F)(F)F)cc3)cc2C(=O)N([C@H](C)CO)C[C@@H]1C` it is 0.947 ± 0.037. As to `CO[C@@H]1CN(C)C(=O)c2cc(NC(=O)NC(C)C)ccc2OC[C@@H](C)N(Cc2ccccc2)C[C@@H]1C`, the viability index came out at 0.939 ± 0.017. On to `O=C(C[C@H]1C[C@H]2c3cc(NC(=O)C4CCOCC4)ccc3O[C@H]2[C@@H](CO)O1)NCc1cccnc1`, for which the viability index amounted to 1.01 ± 0.041. In turn, `C[C@H]1CN([C@@H](C)CO)C(=O)c2cc(NS(=O)(=O)c3ccc(F)cc3)ccc2O[C@H]1CN(C)C(=O)Nc1ccccc1` gave a viability index of 1.02 ± 0.012. In turn, `COc1ccc(-c2ccc([C@H]3[C@H](C#N)N(C(=O)NC(C)C)[C@H]3CO)cc2)cc1` showed a viability index of 1.02 ± 0.019.

Take `COc1ccccc1NC(=O)N1C[C@H](O)COC[C@H]2O[C@@H](CC(=O)NCCc3ccncc3)CC[C@@H]21`: the viability index was found to be 1.14 ± 0.082. The figure for `O=C(Nc1cccc(Cl)c1)N[C@H]1CC[C@H](CCn2cc(Cc3ccccc3)nn2)O[C@H]1CO` is 1.14 ± 0.068; for `C[C@H]1CN([C@@H](C)CO)C(=O)c2cccc(NC(=O)c3nc4ccccc4s3)c2O[C@@H]1CN(C)C(=O)Nc1ccc2c(c1)OCO2` it is 0.944 ± 0.015; for `O=C1NCCOCc2cnnn2CC[C@@H]1Cc1ccc(F)cc1` it is 1.07 ± 0.042. With `COc1ccccc1CNC(=O)C[C@@H]1CC[C@@H]2[C@H](COC[C@@H](O)CN2Cc2ccc3c(c2)OCO3)O1` the figure was 1.088 ± 0.0018; with `Cc1ccc(S(=O)(=O)Nc2ccc3c(c2)C(=O)N(C)[C@@H]2CC[C@H](CC(=O)NCCc4ccncc4)O[C@@H]2CO3)cc1`, 0.921 ± 0.019. With `CN1C(=O)c2cc(NC(=O)c3ccc4c(c3)OCO4)ccc2OC[C@@H]2O[C@@H](CC(=O)O)CC[C@H]21` the figure was 1.1346 ± 0.00065; with `COc1ccc(-c2ccc3c(c2)[C@H]2[C@H](CCN2Cc2cncnc2)[C@H](CO)N3)cc1`, 1.07 ± 0.022; with `O=C(C[C@H]1CC[C@@H]2[C@H](COC[C@@H](O)CN2C(=O)c2ccncc2)O1)NCc1cc(F)cc(F)c1`, 1.06 ± 0.056.

`Cc1noc(C)c1NC(=O)Nc1ccc2c(c1)C(=O)N([C@H](C)CO)C[C@H](C)[C@H](CN(C)Cc1ccc3c(c1)OCO3)OCCCC[C@H](C)O2` had a viability index of 1.15 ± 0.15. With `CCC(=O)N1[C@H](CO)[C@H](c2ccccc2)C12CN(C(=O)Nc1ccccc1F)C2` the figure was 1.07 ± 0.071. With `C[C@@H]1CN([C@@H](C)CO)C(=O)c2cccc(NC(=O)Nc3ccc(F)cc3)c2O[C@H]1CN(C)S(=O)(=O)c1ccc(Cl)cc1` the figure was 0.976 ± 0.09.

`C[C@H](CO)N1C[C@H](C)[C@@H](CN(C)C(=O)Nc2ccc3c(c2)OCO3)Oc2c(NC(=O)c3nc4ccccc4s3)cccc2C1=O` had a viability index of 1.01 ± 0.041. With `COc1ccc(S(=O)(=O)Nc2ccc3c(c2)CC(=O)N([C@@H](C)CO)C[C@@H](C)[C@H](CN(C)Cc2ccc(C(=O)Nc4ccccc4N)cc2)O3)cc1` the figure was 0.836 ± 0.077; with `CC(C)NC(=O)N(C)C[C@H]1Oc2ccc(NC(=O)c3ccncc3)cc2C(=O)N([C@H](C)CO)C[C@H]1C`, 1.06 ± 0.032.

As to `CO[C@H]1CN(C)C(=O)c2cc(NC(=O)C3CCCCC3)ccc2OC[C@@H](C)N(Cc2cccnc2)C[C@@H]1C`, the viability index was determined as 1.1 ± 0.086.
